These results are taken from patent publication US20250066451A1 (SWEDISH ORPHAN BIOVITRUM AB PUBL, published 2025).

A value given as a limit tells only on which side of the number the result lay.

For experiment [1], the target named is T1, Human IL-1R-I-Fc (Creative BioMart cat. no. IL1RI-771H) (human, UniProt P14778 18-332, limits assumed).
T1 construct: Bought protein; also called hIL-1R-I-Fc; hIL-1RI-Fc; not shown: Fc part of the bought fusion
T1 sequence (looked up): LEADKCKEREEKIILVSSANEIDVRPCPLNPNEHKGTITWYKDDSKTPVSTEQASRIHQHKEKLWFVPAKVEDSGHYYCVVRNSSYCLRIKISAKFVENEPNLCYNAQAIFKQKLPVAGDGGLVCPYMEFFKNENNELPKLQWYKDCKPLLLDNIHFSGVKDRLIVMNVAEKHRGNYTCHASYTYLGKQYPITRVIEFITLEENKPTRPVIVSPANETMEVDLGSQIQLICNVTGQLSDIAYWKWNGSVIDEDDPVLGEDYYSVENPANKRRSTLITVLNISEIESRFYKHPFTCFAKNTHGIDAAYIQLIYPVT
The experiment in a line: ELISA titration; Z-ABD periplasmic extract, hIL-1R-I-Fc 100-0.01 nM. On the technique in general: An ELISA detects its analyte on a solid surface through an enzyme-linked reagent.

For experiment [2], the target named is T2, human IL-1R-I (RnD Systems cat. no. 269-1R/CF) (human, UniProt P14778 18-332, limits assumed).
T2 construct: bought protein; also called hIL-1R-I; hIL-1RI
T2 sequence (looked up): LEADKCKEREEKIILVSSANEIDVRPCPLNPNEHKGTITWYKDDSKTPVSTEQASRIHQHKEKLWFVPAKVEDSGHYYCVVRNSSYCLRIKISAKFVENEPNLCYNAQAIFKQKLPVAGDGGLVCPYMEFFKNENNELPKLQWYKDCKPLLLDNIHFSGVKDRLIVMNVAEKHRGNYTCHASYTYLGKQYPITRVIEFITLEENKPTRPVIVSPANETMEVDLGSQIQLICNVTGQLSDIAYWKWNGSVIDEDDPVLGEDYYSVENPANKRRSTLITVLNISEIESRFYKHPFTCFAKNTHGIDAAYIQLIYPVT
The experiment in a line: Biacore SPR, hIL-1R-I immobilized, 1:1 model. The text has this: One flow cell surface on the chip was activated and deactivated for use as blank during analyte injections.
(In general: Surface plasmon resonance follows binding to a sensor surface in real time, without labels.)

A further experiment addresses T3, IL-1R-I on TF-1 cells (UniProt P14778 18-569, limits assumed).
T3 sequence (looked up): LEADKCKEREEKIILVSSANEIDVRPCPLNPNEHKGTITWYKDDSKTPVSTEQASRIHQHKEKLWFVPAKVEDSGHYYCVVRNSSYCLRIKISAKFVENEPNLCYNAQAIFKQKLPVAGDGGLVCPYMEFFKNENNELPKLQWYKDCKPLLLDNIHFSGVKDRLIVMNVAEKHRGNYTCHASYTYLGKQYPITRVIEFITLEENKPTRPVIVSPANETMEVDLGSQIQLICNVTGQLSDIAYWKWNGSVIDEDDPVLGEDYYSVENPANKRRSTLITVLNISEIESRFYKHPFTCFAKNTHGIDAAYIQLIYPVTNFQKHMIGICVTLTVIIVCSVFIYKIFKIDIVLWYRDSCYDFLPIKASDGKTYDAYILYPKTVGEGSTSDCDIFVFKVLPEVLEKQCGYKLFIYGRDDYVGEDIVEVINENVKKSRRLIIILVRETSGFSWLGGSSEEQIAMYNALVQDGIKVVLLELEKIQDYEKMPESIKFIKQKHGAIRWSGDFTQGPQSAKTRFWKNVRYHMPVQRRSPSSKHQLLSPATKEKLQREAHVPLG
The experiment can be described thus: cell-based or functional assay.

B1: Z12895 as Z-ABD fusion (periplasmic extract) (designed binder)
chain: AQHDEALEVDAKYAKEALSAQQEIFALPNLTRRQYTAFIRKLLDDPSQSSELLSEAKKLNDSQAPKVDYVLAEAKVLANRELDKYGVSDYYKNLINNAKTVEGVKALIDEILAALPYVPG
One may read the EC50 as the concentration needed to bring the measured effect to its halfway point. As for B1, the EC50 in experiment [1] amounted to 0.23 nM.

B2: Z12922 as Z-ABD fusion (periplasmic extract) (designed binder)
chain: AQHDEALEVDAKYAKEDEQAQLEIFNLPNLTRRQYTAFIRKLLDDPSQSSELLSEAKKLNDSQAPKVDYVLAEAKVLANRELDKYGVSDYYKNLINNAKTVEGVKALIDEILAALPYVPG
Regarding B2, the EC50 in experiment [1] came out at 2.9 nM.

B3: Z12884 as Z-ABD fusion (periplasmic extract) (designed binder)
chain: AQHDEALEVDAKYAKEASLAQHEIFALPNLTRKQYTAFIRKLFDDPSQSSELLSEAKKLNDSQAPKVDYVLAEAKVLANRELDKYGVSDYYKNLINNAKTVEGVKALIDEILAALPYVPG
Take B3: a half-maximal effect in experiment [1] (EC50) was put at 0.64 nM.

B4: Z12929 as Z-ABD fusion (periplasmic extract) (designed binder)
chain: AQHDEALEVDAKYAKEQADAYAEIYSLPNLTRKQYVAFIRKLIDDPSQSSELLSEAKKLNDSQAPKVDYVLAEAKVLANRELDKYGVSDYYKNLINNAKTVEGVKALIDEILAALPYVPG
In experiment [1], B4 gave an EC50 of 17 nM.

B5: Z12920 as Z-ABD fusion (periplasmic extract) (designed binder)
chain: AQHDEALEVDAKYAKEAVYARDEIYLLPNLTRKQYTAFIRKLFDDPSQSSELLSEAKKLNDSQAPKVDYVLAEAKVLANRELDKYGVSDYYKNLINNAKTVEGVKALIDEILAALPYVPG
As for B5, in experiment [1], a half-maximal response (EC50) required 6.6 nM.

B6: Z12911 as Z-ABD fusion (periplasmic extract) (designed binder)
chain: AQHDEALEVDAKYAKEHEKAILEIFHLPNLTRRQYTAFIRKLLDDPSQSSELLSEAKKLNDSQAPKVDYVLAEAKVLANRELDKYGVSDYYKNLINNAKTVEGVKALIDEILAALPYVPG
On to B6, for which the response in experiment [1] was half-maximal at 0.32 nM (EC50).

B7: Z12964 as Z-ABD fusion (periplasmic extract) (designed binder)
chain: AQHDEALEVDAKYAKEAEDATMEIYNLPNLTRRQYVAFIIKLLDDPSQSSELLSEAKKLNDSQAPKVDYVLAEAKVLANRELDKYGVSDYYKNLINNAKTVEGVKALIDEILAALPYVPG
As for B7, in experiment [1], the midpoint of the response, the EC50, lay at 0.39 nM.

B8: Z12933 as Z-ABD fusion (periplasmic extract) (designed binder)
chain: AQHDEALEVDAKYAKEAKTAQIEIYDLPNLTRRQYVAFIRKLLDDPSQSSELLSEAKKLNDSQAPKVDYVLAEAKVLANRELDKYGVSDYYKNLINNAKTVEGVKALIDEILAALPYVPG
As for B8, in experiment [1], a half-maximal response (EC50) required 1.5 nM.

B9: Z12891 as Z-ABD fusion (periplasmic extract) (designed binder)
chain: AQHDEALEVDAKYAKEQSQAYHEIFKLPNLTRRQYTAFIMKLLDDPSQSSELLSEAKKLNDSQAPKVDYVLAEAKVLANRELDKYGVSDYYKNLINNAKTVEGVKALIDEILAALPYVPG
Regarding B9, the EC50 in experiment [1] turned out to be 2.2 nM.

B10: Z12915 as Z-ABD fusion (periplasmic extract) (designed binder)
chain: AQHDEALEVDAKYAKEVKWAHHEIFQLPNLTRKQYTAFIVKLFDDPSQSSELLSEAKKLNDSQAPKVDYVLAEAKVLANRELDKYGVSDYYKNLINNAKTVEGVKALIDEILAALPYVPG
B10 gave an EC50 in experiment [1] of 4.3 nM.

B11: Z12905 as Z-ABD fusion (periplasmic extract) (designed binder)
chain: AQHDEALEVDAKYAKEARAAQGEIYALPNLTRRQYTAFIMKLLDDPSQSSELLSEAKKLNDSQAPKVDYVLAEAKVLANRELDKYGVSDYYKNLINNAKTVEGVKALIDEILAALPYVPG
In turn, B11 yielded an EC50 in experiment [1] of 7.3 nM.

B12: Z12912 as Z-ABD fusion (periplasmic extract) (designed binder)
chain: AQHDEALEVDAKYAKEALLAQQEIFALPNLTRRQYTAFIRKLLDDPSQSSELLSEAKKLNDSQAPKVDYVLAEAKVLANRELDKYGVSDYYKNLINNAKTVEGVKALIDEILAALPYVPG
For B12, the response in experiment [1] was half-maximal at 0.39 nM (EC50).

B13: Z12961 as Z-ABD fusion (periplasmic extract) (designed binder)
chain: AQHDEALEVDAKYAKEARSAYAEIYGLPNLTRRQYTAFIIKLLDDPSQSSELLSEAKKLNDSQAPKVDYVLAEAKVLANRELDKYGVSDYYKNLINNAKTVEGVKALIDEILAALPYVPG
On to B13, for which a half-maximal response in experiment [1] (EC50) required 0.29 nM.

B14: Z12910 as Z-ABD fusion (periplasmic extract) (designed binder)
chain: AQHDEALEVDAKYAKEALSAQQEIFALPNLTRSQYTAFIRKLLDDPSQSSELLSEAKKLNDSQAPKVDYVLAEAKVLANRELDKYGVSDYYKNLINNAKTVEGVKALIDEILAALPYVPG
In the case of B14, a half-maximal response in experiment [1] (EC50) required 0.23 nM.

B15: Z12941 as Z-ABD fusion (periplasmic extract) (designed binder)
chain: AQHDEALEVDAKYAKEVLYAYWEIFALPNLTRKQYTAFIRKLMDDPSQSSELLSEAKKLNDSQAPKVDYVLAEAKVLANRELDKYGVSDYYKNLINNAKTVEGVKALIDEILAALPYVPG
The molecule B15 came in with an EC50 in experiment [1] of 0.46 nM.

B16: His6-Z16377 (designed binder)
chain: MGSSHHHHHHLQVDAKYAKETERAQMEIFYLPNLTRKQYTAFIRKLLDDPSQSSELLSEAKKLNDSQAPKVD
The term Kd denotes the constant that tells how readily two partners part at equilibrium. Low readings indicate tighter binding, high ones weaker binding. In general, koff refers to the rate constant with which the complex falls apart. The low end stands for slow dissociation, the high end for fast dissociation. Broadly, the kon is the rate constant with which the complex forms. A high value points to faster complex formation. In experiment [2], B16 registered a Kd of 0.54 nM, a koff of 0.0011 s⁻¹ and a kon of 2.1e+06 M⁻¹ s⁻¹. Moreover, the “IC50 (nM), TF-1 cell assay” value in the experiment with IL-1R-I on TF-1 cells was 3.1 nM.

B17: His6-Z17280 (designed binder)
chain: MGSSHHHHHHLQVDAKYAKEVEQAYWEIYALPNLTRKQYTAFIRKLLDDPSQSSELLSEAKKLNDSQAPKVD
As to B17, in experiment [2], binding was put at a Kd of 2.2 nM, the koff was 0.0053 s⁻¹ and the kon was 2.4e+06 M⁻¹ s⁻¹. In addition, the “IC50 (nM), TF-1 cell assay” value with IL-1R-I on TF-1 cells turned out to be 5.4 nM.

B18: His6-Z18557 (designed binder)
chain: MGSSHHHHHHLQVDAKYAKEIEAVQMEIFYLPNLTRKQYTAFIRKLFDDPSQSSELLSEAKKLNDSQAPKVD
With B18, in experiment [2], the Kd came to 0.15 nM, the koff worked out at 0.00067 s⁻¹ and the kon turned out to be 4.4e+06 M⁻¹ s⁻¹. Moreover, the “IC50 (nM), TF-1 cell assay” value with IL-1R-I on TF-1 cells is under 0.5 nM.

B19: His6-Z17274 (designed binder)
chain: MGSSHHHHHHLQVDAKYAKEIEVAYMEIYHLPNLTRKQYTAFIRKLLDDPSQSSELLSEAKKLNDSQAPKVD
In experiment [2], B19 had a Kd of 0.22 nM, a koff of 0.0024 s⁻¹ and a kon of 1.1e+07 M⁻¹ s⁻¹. Also, the “IC50 (nM), TF-1 cell assay” value with IL-1R-I on TF-1 cells was found to be 4.6 nM.

B20: His6-Z16378 (designed binder)
chain: MGSSHHHHHHLQVDAKYAKEVESAYFEIFKLPNLTRKQYTAFIRKLLDDPSQSSELLSEAKKLNDSQAPKVD
In experiment [2], B20 yielded a Kd of 0.55 nM, a koff of 0.0036 s⁻¹ and a kon of 6.6e+06 M⁻¹ s⁻¹. In addition, in the experiment with IL-1R-I on TF-1 cells, the “IC50 (nM), TF-1 cell assay” value was 32.7 nM.

B21: His6-Z17292 (designed binder)
chain: MGSSHHHHHHLQVDAKYAKEVEYAYFEIYSLPNLTRKQYTAFIRKLLDDPSQSSELLSEAKKLNDSQAPKVD
In experiment [2], B21 gave a Kd of 0.38 nM, a koff of 0.005 s⁻¹ and a kon of 1.3e+07 M⁻¹ s⁻¹. Also, the “IC50 (nM), TF-1 cell assay” value with IL-1R-I on TF-1 cells worked out at 13.2 nM.

B22: His6-Z16681 (designed binder)
chain: MGSSHHHHHHLQVDAKYAKEVEYAYYEIFKLPNLTRKQYTAFIRKLLDDPSQSSELLSEAKKLNDSQAPKVD
In experiment [2], B22 came in with a Kd of 1.4 nM, a koff of 0.005 s⁻¹ and a kon of 3.6e+06 M⁻¹ s⁻¹. Besides, the “IC50 (nM), TF-1 cell assay” value with IL-1R-I on TF-1 cells stood at 20.1 nM.
